# Data: the supplement of paper PMC8728848
# The other results are listed elsewhere or left out.
# B1: DC-Sign (Homo sapiens), Q9NNX6 (protein)
# chain: MSDSKEPRLQQLGLLEEEQLRGLGFRQTRGYKSLAGCLGHGPLVLQLLSFTLLAGLLVQVSKVPSSISQEQSRQDAIYQNLTQLKAAVGELSEKSKLQEIYQELTQLKAAVGELPEKSKLQEIYQELTRLKAAVGELPEKSKLQEIYQELTWLKAAVGELPEKSKMQEIYQELTRLKAAVGELPEKSKQQEIYQELTRLKAAVGELPEKSKQQEIYQELTRLKAAVGELPEKSKQQEIYQELTQLKAAVERLCHPCPWEWTFFQGNCYFMSNSQRNWHDSITACKEVGAQLVVIKSAEEQNFLQLQSSRSNRFTWMGLSDLNQEGTWQWVDGSPLLPSFKQYWNRGEPNNVGEEDCAEFSGNGWNDDKCNLAKFWICKKSAASCSRDEEQFLSPAPATPNPPPA
# Legend:
# Test in all cases: glycan array binding signal (z-score within array); higher = stronger binding
# Conditions in all cases: glycan notation: IUPAC condensed, linker removed
# [1] = target: Neu5Ac(a2-6)GlcNAc(b1-4)GlcNAc
# Summary of the method: (§1)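 The binding signal is a Z-score computed within each array. Data were drawn from 3228 arrays in the Consortium for Functional Glycomics database, restricted to those with a known protein sequence. Scores were averaged over arrays of the same protein sequence at different concentrations or buffers, and over linkers, and negative values can be taken as non-binding.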
# [2] = target: Neu5Ac(a2-6)GlcNAc(b1-4)GlcNAc(b1-4)GlcNAc
# Summary of the method: as §1
# [3] = target: Neu5Ac(a2-8)Neu5Ac
# Summary of the method: as §1
# [4] = target: Neu5Ac(a2-8)Neu5Ac(a2-3)Gal(b1-3)GalNAc(b1-4)[Neu5Ac(a2-3)]Gal(b1-4)Glc
# Summary of the method: as §1
# [5] = target: Neu5Ac(a2-8)Neu5Ac(a2-3)Gal(b1-3)GalNAc(b1-4)[Neu5Ac(a2-8)Neu5Ac(a2-3)]Gal(b1-4)Glc
# Summary of the method: as §1
# [6] = target: Neu5Ac(a2-8)Neu5Ac(a2-3)Gal(b1-4)Glc
# Summary of the method: as §1
# [7] = target: Neu5Ac(a2-8)Neu5Ac(a2-3)Gal(b1-4)GlcNAc
# Summary of the method: as §1
# [8] = target: Neu5Ac(a2-8)Neu5Ac(a2-3)[Gal(b1-3)GalNAc(b1-4)]Gal(b1-4)Glc
# Summary of the method: as §1
# [9] = target: Neu5Ac(a2-8)Neu5Ac(a2-3)[GalNAc(b1-4)]Gal(b1-4)Glc
# Summary of the method: as §1
# [10] = target: Neu5Ac(a2-8)Neu5Ac(a2-8)Neu5Ac
# Summary of the method: as §1
# [11] = target: Neu5Ac(a2-8)Neu5Ac(a2-8)Neu5Ac(a2-3)Gal(b1-4)Glc
# Summary of the method: as §1
# [12] = target: Neu5Ac(a2-8)Neu5Ac(a2-8)Neu5Ac(a2-3)[Gal(b1-3)GalNAc(b1-4)]Gal(b1-4)Glc
# Summary of the method: as §1
# [13] = target: Neu5Ac(a2-8)Neu5Ac(a2-8)Neu5Ac(a2-3)[GalNAc(b1-4)]Gal(b1-4)Glc
# Summary of the method: as §1
# [14] = target: Neu5Ac(a2-8)Neu5Ac(a2-8)Neu5Ac(a2-8)Neu5Ac(a2-3)[GalNAc(b1-4)]Gal(b1-4)Glc
# Summary of the method: as §1
# [15] = target: Neu5Ac(a2-8)Neu5Gc(a2-3)Gal(b1-4)GlcNAc
# Summary of the method: as §1
# [16] = target: Neu5Ac(b2-6)Gal(b1-4)GlcNAc
# Summary of the method: as §1
# [17] = target: Neu5Ac(b2-6)GalNAc
# Summary of the method: as §1
# [18] = target: Neu5Ac9Ac(a2-3)Gal(b1-3)GlcNAc
# Summary of the method: as §1
# [19] = target: Neu5Ac9Ac(a2-3)Gal(b1-4)GlcNAc
# Summary of the method: as §1
# [20] = target: Neu5Ac9Ac(a2-6)Gal(b1-4)GlcNAc
# Summary of the method: as §1
# [21] = target: Neu5Gc(a2-3)Gal(b1-3)GlcNAc
# Summary of the method: as §1
# [22] = target: Neu5Gc(a2-3)Gal(b1-3)[Fuc(a1-4)]GlcNAc
# Summary of the method: as §1
# [23] = target: Neu5Gc(a2-3)Gal(b1-4)Glc
# Summary of the method: as §1
# [24] = target: Neu5Gc(a2-3)Gal(b1-4)GlcNAc
# Summary of the method: as §1
# [25] = target: Neu5Gc(a2-3)Gal(b1-4)GlcNAc(b1-3)Gal(b1-4)GlcNAc(b1-2)Man(a1-3)[Neu5Gc(a2-3)Gal(b1-4)GlcNAc(b1-3)Gal(b1-4)GlcNAc(b1-2)Man(a1-6)]Man(b1-4)GlcNAc(b1-4)GlcNAc
# Summary of the method: as §1
# [26] = target: Neu5Gc(a2-3)Gal(b1-4)[Fuc(a1-3)]GlcNAc
# Summary of the method: as §1
# [27] = target: Neu5Gc(a2-6)Gal(b1-4)GlcNAc
# Summary of the method: as §1
# [28] = target: Neu5Gc(a2-6)GalNAc
# Summary of the method: as §1
# [29] = target: Neu5Gc(a2-8)Neu5Ac(a2-3)Gal(b1-4)GlcNAc
# Summary of the method: as §1
# [30] = target: Neu5Gc(a2-8)Neu5Gc(a2-3)Gal(b1-4)GlcNAc
# Summary of the method: as §1
# [31] = target: Neu5Gc(a2-8)Neu5Gc(a2-3)Gal(b1-4)GlcNAc(b1-3)Gal(b1-4)GlcNAc
# Summary of the method: as §1
# [32] = target: Neu5Gc(a2-8)Neu5Gc(a2-6)Gal(b1-4)GlcNAc
# Summary of the method: as §1
# [33] = target: Neu5Gc(b2-6)Gal(b1-4)GlcNAc
# Summary of the method: as §1
binder,measurement,setting,value
B1,glycan array binding signal (z-score),[1],-0.152
same,glycan array binding signal (z-score),[2],-0.196
same,glycan array binding signal (z-score),[3],-0.155
same,glycan array binding signal (z-score),[4],-0.184
same,glycan array binding signal (z-score),[5],-0.155
same,glycan array binding signal (z-score),[6],-0.177
same,glycan array binding signal (z-score),[7],0.033
same,glycan array binding signal (z-score),[8],-0.152
same,glycan array binding signal (z-score),[9],-0.189
same,glycan array binding signal (z-score),[10],-0.152
same,glycan array binding signal (z-score),[11],-0.187
same,glycan array binding signal (z-score),[12],-0.167
same,glycan array binding signal (z-score),[13],-0.192
same,glycan array binding signal (z-score),[14],-0.19
same,glycan array binding signal (z-score),[15],0
same,glycan array binding signal (z-score),[16],-0.118
same,glycan array binding signal (z-score),[17],-0.19
same,glycan array binding signal (z-score),[18],-0.187
same,glycan array binding signal (z-score),[19],-0.175
same,glycan array binding signal (z-score),[20],-0.173
same,glycan array binding signal (z-score),[21],-0.195
same,glycan array binding signal (z-score),[22],-0.072
same,glycan array binding signal (z-score),[23],-0.174
same,glycan array binding signal (z-score),[24],-0.144
same,glycan array binding signal (z-score),[25],-0.136
same,glycan array binding signal (z-score),[26],-0.16
same,glycan array binding signal (z-score),[27],-0.172
same,glycan array binding signal (z-score),[28],-0.159
same,glycan array binding signal (z-score),[29],0.02
same,glycan array binding signal (z-score),[30],-0.075
same,glycan array binding signal (z-score),[31],-0.179
same,glycan array binding signal (z-score),[32],-0.061
same,glycan array binding signal (z-score),[33],-0.179
